Laboratory results as given in the supplement of paper PMC4604168 (melanoma cell lines).
The list shows a part of the results. Repeats are few or missing, and single values can be far off.

Tests used:
Assay in all cases: cell count relative to DMSO control; melanoma cells; higher = more viable cells
Conditions in all cases: library dose: low library concentration; 72 h
[1] = tested on: MeWo
[2] = tested on: RPMI7951
[3] = tested on: RVH-421
[4] = tested on: SkMel28
[5] = tested on: SkMel30
[6] = tested on: SkMel5
[7] = tested on: UACC257
[8] = tested on: UACC62
[9] = tested on: SkMel2
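Note: cell number obtained by counting DAPI-stained nuclei in high-throughput microscope images with image analysis software, screen run in 1,536-well plates.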

Row | SMILES | cell count [1] [%] | cell count [2] [%] | cell count [3] [%] | cell count [4] [%] | cell count [5] [%] | cell count [6] [%] | cell count [7] [%] | cell count [8] [%] | cell count [9] [%]
1 | NC(=O)Nc1cc(-c2cccc(F)c2)sc1C(=O)N[C@H]1CCCNC1 + CCN(CC)CCCCNc1ncc2cc(-c3cc(OC)cc(OC)c3)c(NC(=O)NC(C)(C)C)nc2n1 [PD173074] (first compound 0.02 µM, partner dose 0.1 µM) | 109 | 80 | 117 | 118 | 96.5 | 107 | 110 | 95.1 | –
2 | C[C@]1(c2nc3c(C(N)=O)cccc3[nH]2)CCCN1 [Veliparib] + COc1cc2c(Oc3ccc4[nH]c(C)cc4c3F)ncnc2cc1OCCCN1CCCC1 [cediranib] (first compound 1.4 µM, partner dose 0.4 µM) | 95.5 | 100 | 89.2 | 90.9 | 94 | 106 | 75 | 85.2 | –
3 | C[C@]1(c2nc3c(C(N)=O)cccc3[nH]2)CCCN1 [Veliparib] + Cc1cc(N2CCOCC2)cc2[nH]c(-c3c(NC[C@@H](O)c4cccc(Cl)c4)cc[nH]c3=O)nc12 [BMS536924] (first compound 1.4 µM, partner dose 0.2 µM) | 83.1 | 100 | 96.4 | 79.3 | 95.1 | 93.1 | 77.9 | 77.4 | –
4 | C=CCn1c(=O)c2cnc(Nc3ccc(N4CCN(C)CC4)cc3)nc2n1-c1cccc(C(C)(C)O)n1 + OCCn1cc(-c2cnc3nnn(Cc4ccc5ncccc5c4)c3n2)cn1 [PF04217903] (first compound 0.02 µM, partner dose 1 µM) | 102 | 108 | 75.7 | 96.6 | 80.5 | 87.1 | 112 | 89.7 | 98
5 | CN(C)S(=O)(=O)c1ccc2c(c1)/C(=C/c1cc3c([nH]1)CCCC3)C(=O)N2 + CC(C)CCN1c2nc(Nc3cc(F)c(O)c(F)c3)ncc2N(C)C(=O)C1C [BID1870] (first compound 0.4 µM, partner dose 0.2 µM) | 84.2 | 101 | 112 | 88.1 | 111 | 89.8 | 106 | 86.3 | –
